Source: paper PMC4336329 (PLoS ONE, 2015)
Hit rate of the full screen: of about 310,000 compounds, about 14,000 (4.5%) showed an effect of 50% or more. Effects have a minus sign here. The list shows a part of the results.
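Note: peak tail current of the secondary pulse compared with the same well before compound.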

These compounds were tested against human ether-à-go-go-related gene (hERG) potassium channel (human, UniProt Q12809) (assay: primary screen, population patch clamp on CHO cells stably expressing hERG).
Sequence of human ether-à-go-go-related gene (hERG) potassium channel (Q12809 whole entry, looked up): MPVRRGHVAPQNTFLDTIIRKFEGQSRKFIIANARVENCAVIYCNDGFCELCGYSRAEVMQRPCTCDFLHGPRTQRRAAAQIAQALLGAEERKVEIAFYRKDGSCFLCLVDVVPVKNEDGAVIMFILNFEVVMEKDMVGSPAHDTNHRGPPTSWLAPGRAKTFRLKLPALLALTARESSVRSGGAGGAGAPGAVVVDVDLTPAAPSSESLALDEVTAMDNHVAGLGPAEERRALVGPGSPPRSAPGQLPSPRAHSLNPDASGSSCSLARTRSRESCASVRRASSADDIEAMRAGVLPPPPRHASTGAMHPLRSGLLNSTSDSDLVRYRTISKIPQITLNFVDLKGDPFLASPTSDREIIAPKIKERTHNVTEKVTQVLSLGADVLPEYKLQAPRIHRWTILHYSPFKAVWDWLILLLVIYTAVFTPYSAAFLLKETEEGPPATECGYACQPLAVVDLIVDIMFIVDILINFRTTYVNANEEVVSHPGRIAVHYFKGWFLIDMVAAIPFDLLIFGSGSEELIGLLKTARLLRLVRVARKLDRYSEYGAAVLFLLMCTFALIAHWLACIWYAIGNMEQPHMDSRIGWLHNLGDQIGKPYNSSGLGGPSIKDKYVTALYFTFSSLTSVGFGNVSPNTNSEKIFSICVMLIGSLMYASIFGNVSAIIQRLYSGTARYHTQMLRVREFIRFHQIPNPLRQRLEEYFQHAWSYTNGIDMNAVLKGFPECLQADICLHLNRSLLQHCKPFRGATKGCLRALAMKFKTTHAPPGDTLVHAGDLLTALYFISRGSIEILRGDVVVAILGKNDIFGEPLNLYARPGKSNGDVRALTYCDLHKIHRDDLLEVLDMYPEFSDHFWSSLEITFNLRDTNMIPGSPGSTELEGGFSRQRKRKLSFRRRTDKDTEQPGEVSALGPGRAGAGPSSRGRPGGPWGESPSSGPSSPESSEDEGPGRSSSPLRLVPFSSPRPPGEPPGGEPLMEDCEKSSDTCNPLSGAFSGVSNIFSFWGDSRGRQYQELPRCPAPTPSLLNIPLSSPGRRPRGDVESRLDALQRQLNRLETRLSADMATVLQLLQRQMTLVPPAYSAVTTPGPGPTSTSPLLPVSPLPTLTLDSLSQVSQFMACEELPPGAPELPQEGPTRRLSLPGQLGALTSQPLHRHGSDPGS
For `COCCN(C(=O)CSc1nc2ccccc2c(=O)n1C(C)COC)c1c(N)n(Cc2ccccc2)c(=O)[nH]c1=O` (centres unmarked), the “hERG current change (%, negative = inhibition) at 10uM” value was 12.3%. `CCC(c1nnnn1C(C)(C)C)N(Cc1ccco1)Cc1cc2cccc(C)c2[nH]c1=O` (centres unmarked) was tested, and the “hERG current change (%, negative = inhibition) at 10uM” value was -7.84%. In the case of `OCCC1CN(Cc2cnc(N3CCCC3)s2)CCN1Cc1ccccc1` (centres unmarked), the “hERG current change (%, negative = inhibition) at 10uM” value is reported as -0.21%. With `O=C(NC1CCCCCC1)C1CCN(C(=O)c2ccc(Br)cc2)CC1` the “hERG current change (%, negative = inhibition) at 10uM” value was 4.43%. In the case of `COc1ccc(N2CCN(C(=O)CNC(=O)Cc3ccc(Cl)cc3)CC2)cc1`, the “hERG current change (%, negative = inhibition) at 10uM” value is reported as -8.38%. In the case of `COc1ccccc1CNC(=O)C(NC(=O)C1CCCCC1)C(C)C` (centres unmarked), the “hERG current change (%, negative = inhibition) at 10uM” value is reported as 1.84%. With `O=C1C=C(O)CC(c2ccco2)C1` (centres unmarked) the “hERG current change (%, negative = inhibition) at 10uM” value was 9.75%. With `Cc1cccc(Cn2c(N(C)CCO)nc3c2c(=O)[nH]c(=O)n3C)c1` the “hERG current change (%, negative = inhibition) at 10uM” value was -5.06%. For `CCOC(=O)C(c1ccccc1)C(Nc1ccc(Cl)c(Cl)c1)c1ccccn1` (centres unmarked), the “hERG current change (%, negative = inhibition) at 10uM” value was 7.94%. With `CC(C)C(=O)Nc1cccc(C(=O)NCCc2ccc(S(N)(=O)=O)cc2)c1` the “hERG current change (%, negative = inhibition) at 10uM” value was 2.02%. With `CCN(CC)C(=O)Nc1ccc(Br)cc1` the “hERG current change (%, negative = inhibition) at 10uM” value was 11.9%. `Cc1ccc(-c2nnc(N3CCN(C(=O)COc4ccccc4)CC3)c3ccccc23)cc1` was tested, and the “hERG current change (%, negative = inhibition) at 10uM” value was -52.1%. `Cl.O=C(CN1CCC(NC(=O)c2ccccc2F)CC1)Nc1ccc2c(c1)OCCO2` was tested, and the “hERG current change (%, negative = inhibition) at 10uM” value was 6.04%. For `O=C(C1CCN(S(=O)(=O)c2cccc([N+](=O)[O-])c2)CC1)N1CCOCC1`, the “hERG current change (%, negative = inhibition) at 10uM” value was 0.701%. With `O=C(NCC1COCCO1)c1ccc2nc(Cc3cccc(Cl)c3)oc2c1` (centres unmarked) the “hERG current change (%, negative = inhibition) at 10uM” value was -0.787%. `Cc1ccc(OCn2c(=O)sc3ccccc32)cc1` was tested, and the “hERG current change (%, negative = inhibition) at 10uM” value was -0.855%. In the case of `COc1ccc(OC)c(CNC(=O)C2CCCN(c3nc4ccccc4o3)C2)c1` (centres unmarked), the “hERG current change (%, negative = inhibition) at 10uM” value is reported as -14.9%. In the case of `CC(C)Oc1cccc(C(=O)NC(=S)Nc2ccc3c4c(cccc24)CC3)c1`, the “hERG current change (%, negative = inhibition) at 10uM” value is reported as 14.9%. For `CCC(=O)Nc1sc2c(c1C(N)=O)CCN(Cc1ccccc1)C2.Cl`, the “hERG current change (%, negative = inhibition) at 10uM” value was -53.3%. `COc1ccc(CCN(C)c2ccc(S(=O)(=O)N3CCCC3)cc2[N+](=O)[O-])cc1OC` was tested, and the “hERG current change (%, negative = inhibition) at 10uM” value was -16.2%. For `COCCNCCCCOc1ccc(Br)cc1C.O=C(O)C(=O)O`, the “hERG current change (%, negative = inhibition) at 10uM” value was -36.7%. In the case of `CC(C)Oc1ccc(C(=O)Nc2ccccc2N2CCOCC2)cc1`, the “hERG current change (%, negative = inhibition) at 10uM” value is reported as -36.3%. For `COc1cc(CN2CCC(n3nccc3NC(=O)CCCc3ccccc3)CC2)ccc1O`, the “hERG current change (%, negative = inhibition) at 10uM” value was -31.1%. In the case of `CCN(C(=O)C1=COCCO1)c1nc2c(C)cccc2s1`, the “hERG current change (%, negative = inhibition) at 10uM” value is reported as -17.2%. In the case of `COc1ccc(C(=O)CC(=O)C(=O)Nc2ccc(C)c(Cl)c2)cc1`, the “hERG current change (%, negative = inhibition) at 10uM” value is reported as 9.75%. `O=C(CN1CC(c2ccccc2)CC1=O)OCc1cccc(Br)c1` (centres unmarked) was tested, and the “hERG current change (%, negative = inhibition) at 10uM” value was -30.1%. For `Cc1c(C(=O)NNC(=S)Nc2ccc(S(N)(=O)=O)cc2)oc2ccccc12`, the “hERG current change (%, negative = inhibition) at 10uM” value was 34.4%. For `CCCCN(CCCC)S(=O)(=O)c1ccc2oc(C(=O)N3CCOCC3)c(C)c2c1`, the “hERG current change (%, negative = inhibition) at 10uM” value was -10.2%. In the case of `Cc1ccccc1OCC(=O)N=Nc1c(O)n(C)c2ccccc12`, the “hERG current change (%, negative = inhibition) at 10uM” value is reported as -34.3%. `COc1ccc(C(C(=O)NC2CCCC2)N(C(=O)c2ccco2)c2ccc(OC)c(OC)c2)cc1` (centres unmarked) was tested, and the “hERG current change (%, negative = inhibition) at 10uM” value was -3.08%. In the case of `O=C(NNC(=S)Nc1ccc(Br)cc1Cl)c1ccncc1`, the “hERG current change (%, negative = inhibition) at 10uM” value is reported as 36.7%. For `COC(=O)C1=C(c2cccc(OC)c2OC)C[C@@H]2CC[C@H]1N2C(=O)NCCO`, the “hERG current change (%, negative = inhibition) at 10uM” value was 7.37%. `O=P(CCN1CCCCC1)(c1ccccc1)c1ccccc1` was tested, and the “hERG current change (%, negative = inhibition) at 10uM” value was -5.98%. `CCC(=O)N(Cc1cc(=O)[nH]c2ccccc12)c1ccccc1` was tested, and the “hERG current change (%, negative = inhibition) at 10uM” value was 0.356%. For `Cc1nn(-c2ccccn2)c2c1C(c1ccncc1)C1=C(CC(C)(C)CC1=O)N2` (centres unmarked), the “hERG current change (%, negative = inhibition) at 10uM” value was -50.8%. With `CS(=O)(=O)NCc1nnc2n1-c1ccc(Cl)cc1C(c1ccccc1)=NC2` the “hERG current change (%, negative = inhibition) at 10uM” value was 6.2%. In the case of `CCOc1ccc(OCc2ccc(C(=O)NN)o2)cc1`, the “hERG current change (%, negative = inhibition) at 10uM” value is reported as 3.42%. `CC(C)c1ccc(NC2CCCN(C(=O)CCCn3cncn3)C2)cc1` (centres unmarked) was tested, and the “hERG current change (%, negative = inhibition) at 10uM” value was -37.5%. `O=C(NCCc1ccccc1)C1CCN(S(=O)(=O)N2CCCCC2)CC1` was tested, and the “hERG current change (%, negative = inhibition) at 10uM” value was 2.19%. In the case of `C/C(=N/NS(=O)(=O)c1ccc(Br)cc1)c1ccc(NC(=O)c2ccc(C)o2)cc1`, the “hERG current change (%, negative = inhibition) at 10uM” value is reported as 0.797%. For `CCCN(CCC)CC(O)Cn1cc(/C=C/C(=O)c2cccs2)c2ccccc21` (centres unmarked), the “hERG current change (%, negative = inhibition) at 10uM” value was -30.7%. For `FC(F)(F)c1cnc(NNC(=S)Nc2ccc(Cl)cc2)c(Cl)c1`, the “hERG current change (%, negative = inhibition) at 10uM” value was 6.05%. For `CCNc1ccc(C(=O)O)cc1N`, the “hERG current change (%, negative = inhibition) at 10uM” value was 9.77%. `COc1ccc(C2=NOC(COc3ccc4c(C)cc(=O)oc4c3)C2)c(OC)c1` (centres unmarked) was tested, and the “hERG current change (%, negative = inhibition) at 10uM” value was -11%.
